Data from PubChem BioAssay AID1347165 (National Center for Advancing Translational Sciences (NCATS), 2019).
Values joined by “and” are separate entries in the source; they are usually repeats but may differ in a detail not shown here. Identical values can stand only once. The whole screen tested about 220,000 compounds, of which about 5,700 (2.6%) were called active. Inconclusive means that the source gave no clear call. Such entries were picked first, then a sample of the others. Calls come from the whole dose curve; as a rule, active = well fitted inhibition curve with a large enough effect; inconclusive = small, poorly fitted or top-dose-only effect; inactive = no such curve, though single readings can be large or run the other way. Potencies of inconclusive entries are doubtful fits and often do not repeat.

What follows are compounds tested against Lysine-specific demethylase 5B (Homo sapiens) (UniProt Q9UGL1) (assay: Primary screen for KDM5B Histone Demethylases FDH-coupled qHTS). Details: FDH-coupled NADH fluorescence (FDH is formaldehyde dehydrogenase); activity change, negative = inhibition: at 57.7 µM (top of the series) unless noted.
Sequence of UniProt Q9UGL1 (Q9UGL1 whole entry, looked up): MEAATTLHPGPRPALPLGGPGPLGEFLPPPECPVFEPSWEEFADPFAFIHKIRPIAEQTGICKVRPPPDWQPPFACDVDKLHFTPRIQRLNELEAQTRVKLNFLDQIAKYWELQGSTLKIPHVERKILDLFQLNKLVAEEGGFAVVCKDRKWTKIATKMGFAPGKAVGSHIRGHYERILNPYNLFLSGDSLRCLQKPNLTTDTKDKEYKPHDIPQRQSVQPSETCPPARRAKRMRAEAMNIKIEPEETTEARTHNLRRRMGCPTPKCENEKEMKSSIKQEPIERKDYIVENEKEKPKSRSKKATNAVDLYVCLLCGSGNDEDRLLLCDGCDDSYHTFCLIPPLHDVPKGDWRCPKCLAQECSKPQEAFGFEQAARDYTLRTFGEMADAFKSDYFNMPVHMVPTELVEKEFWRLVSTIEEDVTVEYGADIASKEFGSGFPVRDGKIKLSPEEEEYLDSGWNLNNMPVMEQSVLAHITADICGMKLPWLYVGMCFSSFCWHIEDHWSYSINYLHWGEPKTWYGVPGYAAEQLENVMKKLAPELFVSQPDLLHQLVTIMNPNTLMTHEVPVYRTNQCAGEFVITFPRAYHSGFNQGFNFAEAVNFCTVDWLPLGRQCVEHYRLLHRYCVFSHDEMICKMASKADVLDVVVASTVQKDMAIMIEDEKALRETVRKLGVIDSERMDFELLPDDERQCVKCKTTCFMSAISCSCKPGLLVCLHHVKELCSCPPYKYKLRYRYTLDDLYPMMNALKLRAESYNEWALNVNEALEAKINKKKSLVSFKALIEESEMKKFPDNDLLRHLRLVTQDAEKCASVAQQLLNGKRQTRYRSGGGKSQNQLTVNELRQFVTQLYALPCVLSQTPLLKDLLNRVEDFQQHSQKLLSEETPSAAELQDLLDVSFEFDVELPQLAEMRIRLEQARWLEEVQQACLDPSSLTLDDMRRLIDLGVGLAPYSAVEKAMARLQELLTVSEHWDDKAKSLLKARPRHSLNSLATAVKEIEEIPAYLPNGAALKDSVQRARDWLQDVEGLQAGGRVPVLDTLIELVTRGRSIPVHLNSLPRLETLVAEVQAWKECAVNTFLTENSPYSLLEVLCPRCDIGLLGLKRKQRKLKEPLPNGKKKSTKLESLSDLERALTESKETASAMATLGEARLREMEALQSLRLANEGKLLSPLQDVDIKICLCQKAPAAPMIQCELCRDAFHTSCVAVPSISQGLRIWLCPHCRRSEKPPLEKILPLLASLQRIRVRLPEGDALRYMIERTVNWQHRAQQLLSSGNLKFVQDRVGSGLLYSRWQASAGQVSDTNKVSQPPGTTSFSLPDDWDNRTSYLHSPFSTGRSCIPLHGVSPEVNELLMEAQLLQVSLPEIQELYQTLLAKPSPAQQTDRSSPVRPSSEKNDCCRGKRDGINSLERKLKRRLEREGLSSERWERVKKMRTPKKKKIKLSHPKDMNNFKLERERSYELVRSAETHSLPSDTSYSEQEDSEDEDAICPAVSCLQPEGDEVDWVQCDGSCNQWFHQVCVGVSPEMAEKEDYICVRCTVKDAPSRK
How it was run: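 Coupled FDH/NAD⁺ fluorescence readout. KDM5BΔAP 200 nM final; compound titration, 10 min RT preincubation; substrate mix 12.5 µM H3K4me3, 25 µM 2-OG, 50 µM Fe(II), 100 µM ascorbate, 0.25 mM NAD⁺, 0.25 U/mL FDH; ΔRFU over 30 min.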
Note: nearly all actives have a fitted effect of over 70% in size.
Potency is the fitted concentration of half-maximal effect; tags give direction and shape of the fitted curve.
Throughout, for activity change, negative = inhibition: 0% is about no effect.

Structure (SMILES)	Potency	activity change, negative = inhibition
Cn1c(CNC(=O)CCc2ccnc(N3CCCC3)c2)nc2ccccc21	inconclusive: 25.1 µM [inhibitor, partial curve, poor fit]	
O=C(NCc1cccc(Cl)c1)c1ccc(Cn2ccn3nc4c(c3c2=O)CCCC4)cc1	inconclusive: 28.2 µM [inhibitor, single point]	
Cc1ccc2[nH]c(=O)c(CCC(=O)NC3CCN(Cc4ccccc4)CC3)cc2c1	active: 25.1 µM	
COCCNC(=O)C1CCCN1c1nc2ncccc2o1 (stereo unspecified)	inconclusive: 31.6 µM [inhibitor, partial curve]	
Cc1cc(C)c(NS(=O)(=O)c2ccc(-c3cnc(C4CC4)o3)cc2)c(C)c1	inconclusive: 14.1 µM [inhibitor, partial curve, poor fit]	
C#CCN(C)C[C@@H]1C=C(C)[C@H](Cc2nnc(-c3ccccc3F)o2)C[C@H]1C(C)C	active: 35.5 µM	
COc1cccc(C(CNC(=O)CCc2nnc(-c3ccsc3)o2)N(C)C)c1 (stereo unspecified)		inactive: 5.82%
O=C(O)c1ccc(-c2ccc(C(=O)O)nc2)cc1	inconclusive: 31.6 µM [inhibitor, full curve]	
Cc1cc(NC(=O)CN2C(=O)c3ccccc3S2(=O)=O)no1		inactive: 24.1%
Cc1ccc(N(C(=O)c2snc(C(N)=O)c2N)C(C(=O)NCc2ccccc2)c2ccncc2)c(C)c1 (stereo unspecified)	inconclusive: 28.2 µM [inhibitor, partial curve, poor fit]	
Nc1nccnc1C(=O)NCc1ccco1	inconclusive: 25.1 µM [inhibitor, partial curve, poor fit]	
COc1cccc(-c2ccc3c(N)c(C(=O)c4ccc(Br)cc4)sc3n2)c1	inconclusive: 1.41 µM [inhibitor, full curve, poor fit]	
CCc1ccc(NC(=O)Cn2ccn(Cc3ccccc3OC)c(=O)c2=O)cc1	inconclusive: 39.8 µM [inhibitor, single point]	
N#Cc1nc(-c2ccc(F)cc2)oc1NCCc1ccc(F)cc1	inconclusive: 25.1 µM [inhibitor, partial curve, poor fit]	
C=CCNC(=O)c1cccc2c(C)nnn12	active: 31.6 µM	
COc1ccccc1-c1noc(-c2nc(-c3ccncc3)no2)n1	inconclusive: 31.6 µM [inhibitor, single point]	
O=C(O)c1ccccc1NS(=O)(=O)c1ccc(N/N=C/c2cccs2)c([N+](=O)[O-])c1		inactive: -14.4%
Cc1cccc(/C=N/NC(=O)c2ccc(F)cc2)n1	inconclusive: 22.4 µM [inhibitor, single point]	
O=C(c1cc(Br)cn2ccnc12)N1CCC(N2CCCNC2=O)CC1	inconclusive: 25.1 µM [inhibitor, single point]	
O=C1CCN(C(=O)C2CCC2)CCCC(C(=O)N2CCN(c3ccccn3)CC2)CCN1 (stereo unspecified)	active: 22.4 µM	
COc1ccc(CN(C(=O)Nc2cccc(Cl)c2)c2ccccn2)cc1OC	inconclusive: 39.8 µM [inhibitor, single point]	
O=C(NCCCN1CCCCC1)c1cn2ccnc(-c3ccccc3)c2n1	inconclusive: 15.8 µM [inhibitor, partial curve]	

Structure (SMILES)	Potency	activity change, negative = inhibition
CCCC(=O)n1nc(-c2cccs2)nc1NCc1ccc(C)o1	inconclusive: 31.6 µM [inhibitor, partial curve, poor fit]	
Cc1cc(=O)n(CC(=O)Nc2cccc(C(C)C)c2)c(N2CCc3ccccc3C2)n1	active: 22.4 µM	
COc1ccc(OCCSC2=NCC(C)(C)CN2)cc1		inactive: -17.7%
Cc1ccccc1CNC(=O)C1CCCN(Cc2ccncc2)CCC(=O)NCC1 (stereo unspecified)	inconclusive: 28.2 µM [inhibitor, single point]	
O=C(COCC(=O)N1CCN(c2ccccc2)CC1)NCc1ccccc1		inactive: -11.9%
CC(C)Nc1nc(C(=O)Nc2nnc(C(C)C)s2)cs1	inconclusive: 39.8 µM [inhibitor, partial curve, poor fit]	
CN(C)c1cc2c(cc1NS(=O)(=O)c1ccccc1)n(C)c(=O)n2C	inconclusive: 15.8 µM [inhibitor, partial curve, poor fit]	
CCOC(=O)c1c(C)[nH]c(C(=O)C(C)N(C)Cc2ccccc2Cl)c1C (stereo unspecified)	inconclusive: 14.1 µM [inhibitor, partial curve, poor fit]	
CN(C)C=NC(=O)c1cc2c(n(-c3ccccc3)c1=O)CC(C)(C)CC2=O	inconclusive: 28.2 µM [inhibitor, partial curve, poor fit]	
O=C(NCc1nc(-c2cccc(F)c2)c(-c2ccccn2)[nH]1)[C@@H]1CCCN1	inconclusive: 17.8 µM [inhibitor, partial curve, poor fit]	
O=C(c1nc2sccn2c1Br)N1CCCC1		inactive: -16.9% [at 86.2 µM]
COc1ccc(NC(=O)Nc2cccc(-c3ccc(N4CCOCC4)nn3)c2)cc1F	inconclusive: 28.2 µM [inhibitor, single point]	
O=c1c(Cl)c(N2CCN(S(=O)(=O)c3ccccc3F)CC2)cnn1Cc1ccccc1		inactive: 3.17%
O=[S+]([O-])(c1ccccc1)N1CC2(COCCN(c3nccc(C(F)(F)F)n3)C2)C1	inconclusive: 35.5 µM [inhibitor, partial curve, poor fit]	
Cc1ccc(CN2CCSc3ccc(C(=O)NCCc4ccccc4)cc32)cc1	inconclusive: 35.5 µM [inhibitor, partial curve, poor fit]	
CCc1ccc(C2CC(C(=O)NCc3ccco3)CN(C(C)=O)C2)cc1 (stereo unspecified)	inconclusive: 22.4 µM [inhibitor, single point]	
O=C(NCc1ccc2c(c1)OCO2)Nc1cccc2ccccc12	inconclusive: 14.1 µM [inhibitor, partial curve, poor fit]	
Cc1cccc(-c2cc(C(=O)O)c3ccc(Br)cc3n2)c1		inactive: -21.9%
COc1ccc(Cl)cc1NC(=O)Cn1c(=O)n(Cc2ccco2)c(=O)c2ccc(C(=O)NC3CCCC3)cc21	inconclusive: 25.1 µM [inhibitor, single point]	
Cc1nn(C)c(C)c1C(=O)N[C@@H]1CN(c2ncccn2)C[C@H]1CO	active: 20 µM	
Cn1nc(C(C)(C)C)cc1C(=O)Sc1cccc(Br)c1	inconclusive: 44.7 µM [inhibitor, partial curve, poor fit]	
Cc1ccc(-n2c3nc(=O)[nH]c(=O)c-3cc3c(Cl)cccc32)cc1	inconclusive: 3.98 µM [inhibitor, full curve, poor fit]	

Structure (SMILES)	Potency	activity change, negative = inhibition
Cc1ccc(C)c(NC(=O)N2CCN(C)c3ncccc32)c1	inconclusive: 31.6 µM [inhibitor, partial curve, poor fit]	
Cc1cc(C)cc(-c2ccc(CN)cc2)c1		inactive: -14.2% [at 149 µM]
CNCC#CCOc1ccc(OC)cc1	inconclusive: 39.8 µM [inhibitor, single point]	
O=C(O)c1ccc(Nc2c3ccccc3nc3ccccc23)cc1	inconclusive: 28.2 µM [inhibitor, partial curve, poor fit]	
CCOc1ccc(-n2c(SCC(=O)NCc3ccco3)nc3c([nH]c4ccccc43)c2=O)cc1	inconclusive: 3.98 µM [inhibitor, partial curve, poor fit]	
CCc1ccc2c(CN3C(=O)C(=O)N(CC(C)C)C3=O)cc(=O)oc2c1		inactive: 10.1%
CC(C)NC(=O)CN1CCN(C(=O)c2cc3cc(Cl)ccc3[nH]2)CC1		inactive: 6.79%
C=CCn1cc2c3c(cccc31)[C@H](CC(C)C)N[C@H](C(=O)NCc1ccccc1)C2	inconclusive: 56.2 µM [inhibitor, single point]	
COc1ccccc1NS(=O)(=O)c1ccc2oc(SCCOc3ccc(F)cc3)nc2c1		inactive: 0.335%
Cc1ccc(C(=O)N2CCCn3cc(-c4cccc(C#N)c4)nc32)cn1	active: 28.2 µM	
C=C(C)CN(CC)C(=O)c1c(C)oc2c1CN(Cc1cccc(F)c1)CC2	inconclusive: 20 µM [inhibitor, single point]	
COc1ccc2c(C)c(CCC(=O)NCc3ccc(S(=O)(=O)N(C)C)cc3)c(=O)oc2c1	inconclusive: 28.2 µM [inhibitor, partial curve, poor fit]	
CCCCNC(=O)c1cccc(NC(=O)Nc2ccccc2)c1		inactive: 17.8%
CC(=O)N1CCC[C@H]1C(=O)N1CCc2nc(C)nc(NC3CC3)c2CC1		inactive: 4.02%
CCn1nc(C)c(CNC(=O)c2cc(COc3ccc4ncccc4c3)on2)c1C	inconclusive: 14.1 µM [inhibitor, partial curve]	
COc1ccc(-c2nc3ccc(NS(=O)(=O)c4ccccc4)cc3o2)cc1	inconclusive: 15.8 µM [inhibitor, partial curve, poor fit]	
COc1cccc([S+](=O)([O-])N2CCC3(CC2)C(=NC2CCCCC2)NC(=O)N3c2cccnc2)c1	inconclusive: 39.8 µM [inhibitor, full curve, poor fit] and inconclusive: 31.6 µM [inhibitor, single point]	
Nc1nccnc1C(=O)NCC(c1ccccc1)c1ccccc1	inconclusive: 20 µM [inhibitor, partial curve, poor fit]	
S=C(Nc1ccn(C23CC4CC(CC(C4)C2)C3)n1)NC1CCCC1		inactive: 24.2%
O=C1c2ccccc2NC(c2cnn(-c3ccccc3)n2)N1c1ccc2c(c1)OCO2 (stereo unspecified)	inconclusive: 28.2 µM [inhibitor, single point]	
CC(C)(C)C(=O)Nc1ccccc1C(=O)NCc1cccnc1		inactive: -6.35%
CCc1cc(C(c2ccc(OC)cc2)N2CCOCC2)c(NC(=O)c2ccco2)s1 (stereo unspecified)	inconclusive: 39.8 µM [inhibitor, single point]	
